Results are given in words; binding and its absence hold for the method and conditions named. Binding seen in cells or lysates may run through a third protein. Some results given as binding are weak or reduced against the parent protein; the word gives no strength. Sequences can lack the tags named with a protein.

For assay [1], the target named is T1, FLAG-MTA3 (UniProt Q9BTC8).
T1 sequence: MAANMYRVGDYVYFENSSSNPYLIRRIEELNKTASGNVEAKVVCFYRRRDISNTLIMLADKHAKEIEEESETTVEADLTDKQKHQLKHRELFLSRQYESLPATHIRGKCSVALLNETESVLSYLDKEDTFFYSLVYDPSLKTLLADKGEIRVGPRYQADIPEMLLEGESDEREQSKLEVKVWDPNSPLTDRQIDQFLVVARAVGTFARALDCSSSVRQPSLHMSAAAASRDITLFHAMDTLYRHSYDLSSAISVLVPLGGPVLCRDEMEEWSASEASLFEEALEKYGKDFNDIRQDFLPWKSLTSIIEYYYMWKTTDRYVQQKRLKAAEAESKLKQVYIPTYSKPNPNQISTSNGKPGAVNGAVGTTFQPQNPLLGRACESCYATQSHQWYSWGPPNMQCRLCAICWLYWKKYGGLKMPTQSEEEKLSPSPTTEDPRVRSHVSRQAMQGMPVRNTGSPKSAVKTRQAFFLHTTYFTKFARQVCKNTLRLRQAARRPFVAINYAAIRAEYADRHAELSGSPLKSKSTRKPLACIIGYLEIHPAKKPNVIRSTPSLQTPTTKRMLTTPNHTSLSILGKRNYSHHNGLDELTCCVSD
Put plainly: co-IP; HEK293T transfected with FLAG-HIC1 and FLAG-MTA3; 16 hours 20 μM etoposide or DMSO; lysis in IPH buffer; IP with anti-MTA3 antibodies; blot anti-FLAG.

Assay [2] has as its target Myc-MTA1, wild type (human) (UniProt Q13330). As to the kind of experiment: co-IP; HEK293T transfected with HIC1 and Myc-MTA1 vectors (wt or mutants); lysates immunoprecipitated with anti-c-myc antibodies (MTA1); blot anti-HIC1; Figures 5B-5D ('similar' experiments).
Assay [3] has as its target Myc-MTA1 AAA (I711A/V712A/I713A), SIM-deficient mutant (human) (UniProt Q13330). The description is as above.
The target in assay [4] is Myc-MTA1 K509R, non-SUMOylatable mutant (human) (UniProt Q13330). The description is as above.
In assay [5] the target is endogenous MTA1 proteins of HEK293T cells (human (endogenous in HEK293T)) (UniProt Q13330). Put plainly: co-IP; HEK293T transfected with wt or ΔMKHEP FLAG-HIC1; total extracts immunoprecipitated with anti-MTA1 antibodies (endogenous MTA1); blots MTA1 and FLAG.

B1: FLAG-HIC1 (hypermethylated in cancer 1), wild type, full length (protein, UniProt Q14526-2 1-714)
chain: MLDTMEAPGHSRQLLLQLNNQRTKGFLCDVIIVVQNALFRAHKNVLAASSAYLKSLVVHDNLLNLDHDMVSPAVFRLVLDFIYTGRLADGAEAAAAAAVAPGAEPSLGAVLAAASYLQIPDLVALCKKRLKRHGKYCHLRGGGGGGGGYAPYGRPGRGLRAATPVIQACYPSPVGPPPPPAAEPPSGPEAAVNTHCAELYASGPGPAAALCASERRCSPLCGLDLSKKSPPGSAAPERPLAERELPPRPDSPPSAGPAAYKEPPLALPSLPPLPFQKLEEAAPPSDPFRGGSGSPGPEPPGRPDGPSLLYRWMKHEPGLGSYGDELGRERGSPSERCEERGGDAAVSPGGPPLGLAPPPRYPGSLDGPGAGGDGDDYKSSSEETGSSEDPSPPGGHLEGYPCPHLAYGEPESFGDNLYVCIPCGKGFPSSEQLNAHVEAHVEEEEALYGRAEAAEVAAGAAGLGPPFGGGGDKVAGAPGGLGELLRPYRCASCDKSYKDPATLRQHEKTHWLTRPYPCTICGKKFTQRGTMTRHMRSHLGLKPFACDACGMRFTRQYRLTEHMRIHSGEKPYECQVCGGKFAQQRNLISHMKMHAVGGAAGAAGALAGLGGLPGVPGPDGKGKLDFPEGVFAVARLTAEQLSLKQQDKAAAAELLAQTTHFLHDPKVALESLYPLAKFTAELGLSPDKAAEVLSQGAHLAAGPDGRTIDRFSPT
Regarding B1, the binding result is “binds” in assay [1]; “binds” in assay [2]; “no binding” in assay [3]; “binds” in assay [4]; “binds” in assay [5].

B2: FLAG-HIC1 ΔMKHEP deletion mutant (amino acids 305-326 deleted) (protein, UniProt Q14526-2)
chain: MLDTMEAPGHSRQLLLQLNNQRTKGFLCDVIIVVQNALFRAHKNVLAASSAYLKSLVVHDNLLNLDHDMVSPAVFRLVLDFIYTGRLADGAEAAAAAAVAPGAEPSLGAVLAAASYLQIPDLVALCKKRLKRHGKYCHLRGGGGGGGGYAPYGRPGRGLRAATPVIQACYPSPVGPPPPPAAEPPSGPEAAVNTHCAELYASGPGPAAALCASERRCSPLCGLDLSKKSPPGSAAPERPLAERELPPRPDSPPSAGPAAYKEPPLALPSLPPLPFQKLEEAAPPSDPFRGGSGSPGPEPPGRPDGRERGSPSERCEERGGDAAVSPGGPPLGLAPPPRYPGSLDGPGAGGDGDDYKSSSEETGSSEDPSPPGGHLEGYPCPHLAYGEPESFGDNLYVCIPCGKGFPSSEQLNAHVEAHVEEEEALYGRAEAAEVAAGAAGLGPPFGGGGDKVAGAPGGLGELLRPYRCASCDKSYKDPATLRQHEKTHWLTRPYPCTICGKKFTQRGTMTRHMRSHLGLKPFACDACGMRFTRQYRLTEHMRIHSGEKPYECQVCGGKFAQQRNLISHMKMHAVGGAAGAAGALAGLGGLPGVPGPDGKGKLDFPEGVFAVARLTAEQLSLKQQDKAAAAELLAQTTHFLHDPKVALESLYPLAKFTAELGLSPDKAAEVLSQGAHLAAGPDGRTIDRFSPT
Turning to B2, the binding entry in assay [2] and in assay [5] was “binds weakly” in each case.

The values above are taken from paper PMC5356852.
